Experimental findings from paper PMC9304783 (2022) are described below.

Sequences and labels used below:
B1: STIM1_([…])-CFP [not stated] / YFP-CAD [human] (parent complex)
chain 1: LSHSHSEKATGTSSGANSEESTAAEFCRIDKPLCHSEDEKLSFEAVRNIHKLMDDDANGDVDVEESDEFLREDLNYHDPTVKHSTFHGEDKLISVEDLWKAWKSSEVYNWTVDEVVQWLITYVELPQYEETFRKLQLSGHAMPRLAVTNTTMTGTVLKMTDRSHRQKLQLKALDTVLFGPPLLTRHNHLKDFMLVVSIVIGVGGCWFAYIQNRYSKEHMKKMMKDLEGLHRAEQSLHDLQERLHKAQEEHRTVEVEKVHLEKKLRDEINLAKQEAQRLKELREGTENERSRQKYAEEELEQVREALRKAEKELESHSSWY
chain 2: not shown

The variants in the experiment derive from B1. The experiment in a line: two-component E-FRET assay in HEK cells; resting state (pre-ionomycin), 2 Ca; read off a plot.
On to chain 1 H244A, for which the ratio to parent was ~1.2.
Consider chain 1 H218A, for which the ratio to parent is ~1.1.
With chain 1 Q211A the figure was ~1.1; with chain 1 H230A, ~0.95.
With chain 1 M219A the figure was ~0.85; with chain 1 M222A, ~0.05; with chain 1 Q247A, ~1.1.
Next, chain 1 Q240A: ~0.85.
In the case of chain 1 K224A, the ratio to parent was ~0.93.
Next, chain 1 N212A: ~1.1; chain 1 E248A: ~1.3; chain 1 S215A: ~1.1.
With chain 1 R231A the figure was ~0.88.
Next, chain 1 K220A: ~1.1.
In the case of chain 1 D225A, the ratio to parent was ~0.07.
In the case of chain 1 G228A, the ratio to parent is ~0.92.
Take chain 1 K216A: the ratio to parent was ~1.2.
With chain 1 E217A the figure was ~0.7; with chain 1 R242A, ~1.2; with chain 1 Q234A, ~0.7.
Next, chain 1 E233A: ~0.78.
Next, chain 1 L226A: ~0.03; chain 1 H237A: ~1.
Take chain 1 S235A: the ratio to parent was ~0.82.
Next, chain 1 R213A: ~1.3.
Next, chain 1 Y214A: ~0.9.
Next, chain 1 K245A: ~0.87; chain 1 M223A: ~0.65.
chain 1 K221A: the ratio to parent is ~0.9.
With chain 1 D238A the figure was ~0.68; with chain 1 L236A, ~0.25; with chain 1 E241A, ~1.6.
Next, chain 1 L229A: ~0.02.
As for chain 1 L239A, the ratio to parent is ~0.9.
For the variant chain 1 E227A, the ratio to parent is ~0.6.
